Test [1] concerns the target T1, RANTES (human) (human, UniProt P13501 24-91).
T1 sequence (looked up): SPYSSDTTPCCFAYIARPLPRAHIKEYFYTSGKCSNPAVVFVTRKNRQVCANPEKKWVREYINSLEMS
Put plainly: cell-based or functional assay.

Test [2] has as its target T2, I-TAC (human) (human, UniProt O14625 22-94).
T2 sequence (looked up): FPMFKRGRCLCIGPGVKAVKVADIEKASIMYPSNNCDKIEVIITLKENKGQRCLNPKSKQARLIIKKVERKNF
The test is described as follows: cell-based or functional assay.

Test [3] addresses T3, IP-10 (human) (human, UniProt P02778 22-98).
T3 sequence (looked up): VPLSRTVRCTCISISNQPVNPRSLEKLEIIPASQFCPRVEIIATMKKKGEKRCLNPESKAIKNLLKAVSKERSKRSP
The test is described as follows: cell-based or functional assay.

Test [4] concerns the target T4, MIG (human) (human, UniProt Q07325 23-125).
T4 sequence (looked up): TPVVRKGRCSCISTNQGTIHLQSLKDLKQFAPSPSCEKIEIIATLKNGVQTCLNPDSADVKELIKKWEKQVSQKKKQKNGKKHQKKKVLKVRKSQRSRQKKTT
Put plainly: cell-based or functional assay.

Test [5] addresses T5, MCP-1 (human) (human, UniProt P13500 in part). The test is described as follows: cell-based or functional assay.
In test [6] the target is T6, Eotaxin (human) (human, UniProt P51671 24-97). Put plainly: cell-based or functional assay.
Test [7] deals with T1, RANTES (human). The test is described as follows: SPR, polypeptide immobilised on carboxymethyldextran, chemokine injected.
For test [8], the target named is T2, I-TAC (human). Described as above.
Test [9] addresses T3, IP-10 (human). The test is described as above.
The target of test [10] is T4, MIG (human). Described as above.
Test [11] concerns the target T5, MCP-1 (human). The test is described as above.
In test [12] the target is T6, Eotaxin (human). The description is as above.
T6 sequence (P51671 24-97 limits assumed): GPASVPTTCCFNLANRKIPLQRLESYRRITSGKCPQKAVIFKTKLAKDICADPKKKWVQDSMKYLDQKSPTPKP

T5 sequence (P13500 24-99 limits assumed): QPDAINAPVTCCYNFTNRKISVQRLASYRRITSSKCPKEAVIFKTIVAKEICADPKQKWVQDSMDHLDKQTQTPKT

B1: BKT-P2-FC (Fc fusion)
chain: VPPSIPSHSIHSAKAGGGSKGF[omitted - human IgG1 Fc with changes]
notes: also called IL6 signal peptide-BKT-P2-Spacer-FC; BKT-Fc-2
A word on the Kd: it is the constant that tells how readily two partners part at equilibrium. A higher Kd goes with lower affinity. In the case of B1, the “Inhibition of chemokine-dependent T cell adhesion to VCAM-1 (++ = 100% inhibition)” value with RANTES (human) [1], in the test with I-TAC (human) [2], with IP-10 (human) [3], with MIG (human) [4], with MCP-1 (human) [5] and with Eotaxin (human) [6] was 100 % inhibition each time. Moreover, the dissociation constant Kd amounted to 18 nM in the test with RANTES (human) [7]; 83 nM in the test with I-TAC (human) [8]; 38 nM with IP-10 (human) [9]; 130 nM with MIG (human) [10]; 6500 nM with MCP-1 (human) [11]; 27000 nM in the test with Eotaxin (human) [12].

B2: BKT-P46-FC (Fc fusion)
chain: VPPLDYPIPQTVLHHGGGSKGF[omitted - human IgG1 Fc with changes]
notes: also called IL6 signal peptide-BKT-P46-Spacer-FC; BKT-Fc-46
B2: the “Inhibition of chemokine-dependent T cell adhesion to VCAM-1 (++ = 100% inhibition)” value in the test with RANTES (human) [1], in the test with I-TAC (human) [2], with MIG (human) [4], with MCP-1 (human) [5] and in the test with Eotaxin (human) [6] was 100 % inhibition in each case. Moreover, the Kd with I-TAC (human) [8] is 370 nM; with IP-10 (human) [9], 6.3 nM; in the test with MIG (human) [10], 18 nM; with MCP-1 (human) [11], 46 nM; with Eotaxin (human) [12] it was 5000 nM.

For the origin of these results see patent US20170015708A1 (BIOKINE THERAPEUTICS, published 2017).
